Measured values published in PubChem BioAssay AID1461 (National Center for Advancing Translational Sciences (NCATS), 2008).
The campaign covered roughly 220,000 compounds. About 2,300 (1%) were called active. Inconclusive results (about 6%) are left out. The call rests on the fitted dose curve; in most records, active means well fitted inhibition curve with a large enough effect; inconclusive means small, poorly fitted or top-dose-only effect, or effect the other way; inactive means no such curve, though single readings can be large or run the other way. The entries are a selection whose mix differs from that of the whole data set.

Target: Neuropeptide S receptor (Homo sapiens) (UniProt Q6W5P4)
Experiment: qHTS Assay for Antagonists of the Neuropeptide S Receptor: cAMP Signal Transduction; further: nearly all actives have a fitted effect of over 50% in size
Details: CHO-NPSR cells, cAMP TR-FRET, antagonist mode; series mostly up to 38.3 µM; activity change, negative = inhibition: at the top concentration
Excerpt: NIH Chemical Genomics Center [NCGC] NIH Molecular Libraries Probe Production centers Network [MLPCN] MLPCN Grant: X01-DA026210-01 Assay Submitter (PI): Heilig, Markus Alexander NCGC Assay Overview: Neuropeptide S receptor (NPSR), previously known as GPR154, is a recently de-orphanized G protein coupled receptor. Its endogenous ligand is the 20 amino acids peptide Neuropeptide S (NPS). […] NPS and its receptor are found in various tissues. Specifically they are highly expressed in brain areas that have been implicated in modulation of arousal, stress and anxiety. Central administration of NPS in mice produces an unusual profile of activity by inducing wakefulness and arousal, while at the same time suppressing anxiety. Therefore, NPSR may represent a novel drug target for the treatment of sleep and anxiety disorders. To identify NPSR antagonists, we developed a cell-based cAMP assay. NPS can stimulate the production of cAMP in Chinese hamster ovary cells stably expressing NPS receptor. This change in intracellular cAMP level can be detected by a homogeneous LANCE cAMP assay based on the TR-FRET (time resolved fluorescence resonance energy transfer) between a europium-labeled cAMP tracer complex and a cAMP-specific antibody labeled with Alexa Fluor 647. The europium-labeled cAMP tracer complex is formed by the tight interaction between Biotin-cAMP (b-cAMP) and streptavidin labeled with Europium-W8044 chelate (Eu-SA). Light pulse at 320 nm excites the europium of the cAMP tracer and the energy emitted is transferred to the Alexa molecule bound to the cAMP antibody, generating a TR-FRET signal at 665 nm. Residual energy from the europium will produce a light at 620 nm. The native unlabeled cAMP from cell lysates competes with the europium-cAMP tracer for antibody binding and reversely reduces the emission signal of Alexa by interrupting FRET between the two labeled molecules. Both emission signals from the FRET donor (620 nm) and the acceptor (665 nm) can be detected by a plate reader in the TRF mode. Expression of result in fluorescence ratio (665 nm/620 nm) helps to normalize differences due to cell density and reagent dispensing. This assay was successfully optimized to a 1536-well plate format.
NCGC Assay Protocol Summary: A Chinese hamster ovary (CHO) cell line stably expressing the NPS receptor (CHO-NPSR) was obtained from Dr. Heilig lab at NIAAA and maintained in F-12 Kaighn's media (Invitrogen, Carlsbad, CA, 21127) supplemented with 10 % FBS, 100 units/ml penicillin, 100 ug/ml streptomycin and 250 ug/ml geneticin at 37C, 5% CO2 in a humidified atmosphere. Before the assay, aliquots of cells were frozen and stored at -135C. The assay was performed in 1536-well format. Data are reported for both the ratio of the two emission wavelengths, and also for the component 'donor' channel, Em2=620. Data were normalized to the controls for basal activity (DMSO only) and 100% inhibition (No NPS control). IC50 values were determined from concentration-response data modeled with the standard Hill equation. NPS 1536-well assay protocol: (1) Fresh or frozen CHO-NPSR cells were suspended in F-12 Kaighn's media supplemented with 10 % FBS, 100 units/ml penicillin and 100 ug/ml streptomycin. Cells were plated at 4 ul/well (1200 cells) to white, tissue culture treated 1536-well plates, and then cultured at 37C, 5 % CO2 for 16 to 30 hours. (2) Add 23 nl/well of compound in DMSO solution. The final titration for each compound was between 0.6 nM and 46 uM. (3) Add 1 ul of stimulation reagent (1X HBSS buffer, 5 mM HEPES, 0.1% BSA, 500 uM RO-201724 (Sigma-Aldrich, B8279), 1.5% Alexa 647-labeled anti-cAMP antibody (from Perkin Elmer), 100 nM NPS) (4) Incubation at 37C, 5 % CO2 for 60 min. (5) Add 1 ul/well detection reagent. Detection reagent was prepared by adding biotin labeled cAMP (4%), streptavidin labeled with Europium-W8044 chelate (1.33%) and TritonX-100 (1%) to detection buffer. […]
On the % scale 0 is the no-effect control and ±100 the full control effect; potency means the concentration at half of the fitted maximal effect.

Sequence of UniProt Q6W5P4 (Q6W5P4 whole entry, looked up): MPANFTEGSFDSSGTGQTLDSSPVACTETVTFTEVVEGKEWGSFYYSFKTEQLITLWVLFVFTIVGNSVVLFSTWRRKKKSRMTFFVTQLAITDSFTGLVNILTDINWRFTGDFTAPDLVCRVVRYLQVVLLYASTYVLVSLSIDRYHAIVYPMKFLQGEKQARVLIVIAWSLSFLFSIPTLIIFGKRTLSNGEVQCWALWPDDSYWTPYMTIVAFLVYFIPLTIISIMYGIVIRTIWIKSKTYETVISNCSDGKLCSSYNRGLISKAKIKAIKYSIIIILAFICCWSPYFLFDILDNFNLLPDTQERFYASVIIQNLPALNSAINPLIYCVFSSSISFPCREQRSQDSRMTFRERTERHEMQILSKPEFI

Q: Cc1ccc2nc(-c3cccnc3)cc(C(=O)N3CCN(c4ccc([N+](=O)[O-])cc4)CC3)c2c1 was tested. Which Potency did it give?
A: active: 5.01 µM

Q: How did the “activity change, negative = inhibition” value turn out when Clc1ccc2c(c1)C(N1CCNCC1)=Nc1ccccc1O2 was run?
A: inactive: 8.28%

Q: With O=C(C1=C[C@@H](c2ccc(Br)cc2)C[C@@H](OCCCCO)O1)N1CCN(Cc2ccc3c(c2)OCO3)CC1 as the molecule, how does the “activity change, negative = inhibition” value read?
A: inactive: 51.4%

Q: For CC(=O)n1cc([C@@H]2C=C(C(=O)N3CCN(Cc4ccc5c(c4)OCO5)CC3)O[C@H](OCCCCO)C2)c2ccccc21, which “activity change, negative = inhibition” value is on record?
A: inactive: 49.9%

Q: c1ccc(CC2CCN(C3=Nc4cccc5cccc3c45)CC2)cc1 was tested. Which Potency did it give?
A: active: 10 µM

Q: For CN(C)CCCN1c2ccccc2CCc2ccc(Cl)cc21, which “activity change, negative = inhibition” value is on record?
A: inactive: -44.5%

Q: CC1=C(C)C(=O)C(CCCCC#CCCCC#CCO)=C(C)C1=O was tested. Which “activity change, negative = inhibition” value did it give?
A: inactive: -5.53%

Q: How did the Potency turn out when CC1CCN(c2nc(-c3ccccc3)c(C#N)c(=O)[nH]2)CC1 was run?
A: active: 12.6 µM

Q: CC1=NNC(=O)/C1=C\c1cn(-c2ccccc2)nc1-c1ccc(Cl)cc1 was tested. Which Potency did it give?
A: active: 2.51 µM

Q: How did the “activity change, negative = inhibition” value turn out when O=C(CCC1CCCCC1)NCCN1C2=NC[C@@H](Cc3ccccc3)N2C[C@H]1Cc1ccc(O)cc1 was run?
A: inactive: 59.6%

Q: For CC[C@]1(O)CC2CN(CCc3c([nH]c4ccccc34)[C@@](C(=O)OC)(c3cc4c(cc3OC)N(C=O)[C@H]3[C@@](O)(C(=O)OC)[C@H](OC(C)=O)[C@]5(CC)C=CCN6CC[C@]43[C@@H]65)C2)C1 (stereo not given in full), which “activity change, negative = inhibition” value is on record?
A: inactive: 26.1%

Q: CNCCC=C1c2ccccc2CCc2ccccc21 was tested. Which “activity change, negative = inhibition” value did it give?
A: inactive: -11.2%

Q: Which “activity change, negative = inhibition” value does the source give for Cc1ccc(/C(=C\CN2CCCC2)c2ccccn2)cc1 here?
A: inactive: 11.9%

Q: How did the “activity change, negative = inhibition” value turn out when CCO[C@@H]1OC(C(=O)N2CCCCCCC2)=C[C@H](c2csc3ccccc23)[C@H]1CCCO was run?
A: inactive: 48.3%

Q: For CCOC(=O)/C(C#N)=C1/C(=O)N(Cc2ccccc2)c2ccccc21, which “activity change, negative = inhibition” value is on record?
A: inactive: -3.68%

Q: For CCN(CC)CC#CCOC(=O)C(O)(c1ccccc1)C1CCCCC1 (stereo not given), which “activity change, negative = inhibition” value is on record?
A: inactive: -19.1%

Q: How did the Potency turn out when Cc1ccccc1OCc1nc(-c2ccc(NC(=O)c3ccc4c(c3)OCO4)cc2)no1 was run?
A: active: 10 µM

Q: c1ccc2c(c1)CC/C2=N/Nc1nc2ccccc2[nH]1 was tested. Which Potency did it give?
A: active: 7.94 µM

Q: For CN(C)CCN(Cc1cccs1)c1ccccn1, which “activity change, negative = inhibition” value is on record?
A: inactive: 10.3%

Q: CN1CCN(C(=O)C2=C[C@@H](c3coc4ccccc4c3=O)C[C@@H](OCCCCO)O2)CC1 was tested. Which “activity change, negative = inhibition” value did it give?
A: inactive: -19.1%

Q: Which “activity change, negative = inhibition” value does the source give for COC(=O)c1ccc(NC(=O)CCN2CCCCC2)cc1 here?
A: inactive: -1.01% [at 46.1 µM]

Q: With CC(C)(C)c1ccc(CN2N=Nc3ccccc3S2(=O)=O)cc1 as the molecule, how does the Potency read?
A: active: 10 µM

Q: How did the Potency turn out when Cc1ccc(NC2=C/C(=N\S(=O)(=O)c3cccs3)c3ccccc3C2=O)c(C)c1 was run?
A: active: 3.98 µM

Q: COc1cccc(N2CCN(c3ncnc4c3cnn4-c3ccc(C)cc3C)CC2)c1 was tested. Which Potency did it give?
A: active: 10 µM

Q: How did the Potency turn out when CCCCSc1cnn(-c2ccccc2)c(=O)c1SCCCC was run?
A: active: 12.6 µM

Q: For O=C(C1=C[C@@H](c2coc3ccccc3c2=O)C[C@@H](OCc2ccc(CO)cc2)O1)N1CCN(Cc2ccc3c(c2)OCO3)CC1, which “activity change, negative = inhibition” value is on record?
A: inactive: 48.9%

Q: For CC(=O)Nc1ccc(NC2=C/C(=N/S(=O)(=O)c3cccs3)c3ccccc3C2=O)cc1, which Potency is on record?
A: active: 7.94 µM

Q: How did the “activity change, negative = inhibition” value turn out when O=C(NC1CC1)C1=C[C@@H](C2CCCCC2)C[C@@H](OCc2ccc(CO)cc2)O1 was run?
A: inactive: 30.2%

Q: How did the “activity change, negative = inhibition” value turn out when CCO[C@@H]1OC(C(=O)O)=C[C@H](c2csc3ccccc23)[C@H]1CCCO was run?
A: inactive: -4.98%

Q: How did the “activity change, negative = inhibition” value turn out when O=C(C1=C[C@@H](C2CCCCC2)C[C@@H](OCCCCO)O1)N1CCN(Cc2ccc3c(c2)OCO3)CC1 was run?
A: inactive: 45.3%

Q: How did the “activity change, negative = inhibition” value turn out when CC(=O)O[C@H]1C(=O)[C@@]2(C)[C@H]([C@H](OC(=O)c3ccccc3)[C@]3(O)C[C@H](OC(=O)[C@H](O)C(NC(=O)c4ccccc4)c4ccccc4)C(C)=C1C3(C)C)[C@]1(OC(C)=O)CO[C@@H]1C[C@@H]2O (stereo not given in full) was run?
A: inactive: -36.5%

Q: For CCc1ccc2nc(N3C(=O)C(O)=C(C(=O)c4ccco4)C3c3cccs3)sc2c1 (stereo not given), which Potency is on record?
A: active: 10 µM

Q: With CC(C)(C)[C@]1(O)CCN2C[C@H]3c4ccccc4CCc4cccc(c43)[C@@H]2C1 as the molecule, how does the “activity change, negative = inhibition” value read?
A: inactive: -39.9%

Q: Which “activity change, negative = inhibition” value does the source give for COc1ccc(C2=C(CN(C)C)C(c3ccccc3)c3ccccc3O2)cc1 (stereo not given) here?
A: inactive: -17.2% [at 46.1 µM]

Q: For O=C(COC(=O)CCc1ccc(S(=O)(=O)N2CCOCC2)cc1)Nc1ccc(Cl)cn1, which “activity change, negative = inhibition” value is on record?
A: inactive: -0.096%

Q: CCCNCC(O)COc1ccccc1C(=O)CCc1ccccc1 (stereo not given) was tested. Which Potency did it give?
A: inactive

Q: How did the “activity change, negative = inhibition” value turn out when O=[N+]([O-])c1cccc2cn[nH]c12 was run?
A: inactive: 17.1%

Q: With CCC(C)N(C)C(=O)c1cc2ccccc2c(-c2ccccc2Cl)n1 (stereo not given) as the molecule, how does the “activity change, negative = inhibition” value read?
A: inactive: -32.6%

Q: With Cc1nc2nc(C)c(CCC(=O)NCCCN3CCN(c4cccc(Cl)c4)CC3)c(C)n2n1 as the molecule, how does the “activity change, negative = inhibition” value read?
A: inactive: 6.08%

Q: Which Potency does the source give for Cc1ccc2c(Cl)c(C(=O)Nc3ccc4c(c3)OCO4)sc2c1 here?
A: active: 6.31 µM
